Experimental data: the supplement of paper PMC3334620
Over roughly 33,000 sequences, “E-score (-0.5 to 0.5)” has its median near -0.035; the highest 2% begin near 0.35. Some of the results follow.

These sequences were tested against T1, Pdr3 (UniProt P33200) (assay: PBM E-score (8-mer binding enrichment) (E-score (-0.5 to 0.5)); higher = stronger / more preferred TF binding; most listed sequences are background and not binding sites). Conditions: protein concentration: 200 nM; construct: GST-full length.
T1 sequence: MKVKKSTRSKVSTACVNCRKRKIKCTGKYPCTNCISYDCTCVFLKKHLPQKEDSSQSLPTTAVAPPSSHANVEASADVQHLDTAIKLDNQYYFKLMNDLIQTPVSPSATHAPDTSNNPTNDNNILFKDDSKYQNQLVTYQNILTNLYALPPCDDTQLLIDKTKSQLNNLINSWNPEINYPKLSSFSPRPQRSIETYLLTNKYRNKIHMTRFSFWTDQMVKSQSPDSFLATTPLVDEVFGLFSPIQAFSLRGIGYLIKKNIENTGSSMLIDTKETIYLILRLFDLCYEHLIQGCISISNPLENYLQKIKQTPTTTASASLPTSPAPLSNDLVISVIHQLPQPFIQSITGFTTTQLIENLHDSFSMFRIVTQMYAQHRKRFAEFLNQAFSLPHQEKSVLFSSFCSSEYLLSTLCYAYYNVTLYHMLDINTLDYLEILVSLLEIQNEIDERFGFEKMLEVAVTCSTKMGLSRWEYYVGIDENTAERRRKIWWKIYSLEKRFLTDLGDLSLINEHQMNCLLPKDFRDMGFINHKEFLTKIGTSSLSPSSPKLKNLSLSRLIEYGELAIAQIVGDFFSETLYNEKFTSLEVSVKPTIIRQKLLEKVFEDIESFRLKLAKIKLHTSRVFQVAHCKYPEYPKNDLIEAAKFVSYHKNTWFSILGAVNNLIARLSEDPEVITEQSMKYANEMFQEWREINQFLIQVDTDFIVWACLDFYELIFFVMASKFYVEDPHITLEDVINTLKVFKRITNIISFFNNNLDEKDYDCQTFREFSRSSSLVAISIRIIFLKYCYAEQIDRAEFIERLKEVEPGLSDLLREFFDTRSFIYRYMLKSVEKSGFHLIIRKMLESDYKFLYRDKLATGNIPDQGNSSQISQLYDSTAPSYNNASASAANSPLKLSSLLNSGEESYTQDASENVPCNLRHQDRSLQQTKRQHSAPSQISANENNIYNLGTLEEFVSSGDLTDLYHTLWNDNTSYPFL
Procedure: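 Universal 'all 10-mer' protein binding microarrays (Agilent AMADID 015681) probed with GST-tagged S. cerevisiae TFs (full-length or DBD) made by in vitro transcription/translation (PURExpress), about 100-200 nM. Bound TF was detected with fluorescent anti-GST. Each ungapped 8-mer (which stands for itself and its reverse complement) is scored by the PBM enrichment score (E-score), a modified Wilcoxon-Mann-Whitney statistic from -0.5 to +0.5, computed with the Universal PBM Analysis Suite. Scale: above 0.35 generally sequence-specific binding.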

Sequence	PBM E-score
CCCTTAGA	-0.37
ACAAATTA	0.0754
ATGGGTCA	-0.162
AGTGCATA	-0.169
ATCTCCCC	0.00429
ATGGGAGC	0.0452
TAGCCATA	-0.312
ACGCTAGC	-0.151
CAACTGGA	-0.0462
AAGAATTG	0.0285
GATGCGCC	0.0344
GACACACC	0.105
TGAGCCAA	-0.304
CTATGCAC	-0.271
AGAATTAC	0.00038
GCTAGAAA	0.00276
GAATGTCA	-0.092
CTCACACA	0.0581
CCAGACCA	-0.109
AGAGTCCC	-0.133
ATGTGCAC	-0.0349
AAGCAGCT	-0.0614
CTGCTGCC	-0.0922
GGTAGACA	-0.00736
ATCTCTTA	-0.0707

Sequence	PBM E-score
AACCGTGG	-0.0147
ACCCAGTA	-0.307
CCGCGCGC	0.332
AATAGAGA	-0.086
GCATAGAA	0.0956
CAAGCGAG	0.0544
CATCCCCA	-0.0591
ACGAACGG	0.286
GTGGAGTA	-0.134
ACGTCTCG	-0.0164
CATTAATA	0.0798
GCGATCCA	-0.0136
AGACGCCA	-0.123
TACCTTCA	-0.146
CCAGCCAG	-0.0939
AGATATTA	0.053
CATGATCA	-0.153
TAAGAGTA	-0.166
CTGCATTA	-0.0513
CCAGAGGC	-0.251
GGACTGGA	0.122
AGGCTATA	-0.194
CCGCTTAA	0.0956
ACCTGGGG	-0.281
CGACGCCC	0.173

Sequence	PBM E-score
CATCAGCC	-0.0388
GATCAAGA	0.123
AACGCGGG	0.332
AATGAAAC	0.059
CACCGAGG	0.167
AAACTCGG	0.218
ACCTCCTG	-0.304
ACCCTGGG	0.00742
TGTCGACA	-0.217
AGGTGAAG	-0.118
GTACATAA	-0.0417
GCCGCCCC	0.14
ACTGCAGC	-0.0257
ATCGGCAA	0.0933
ACCGCCAC	-0.0374
AAGGAATT	0.0441
AAAGAGTC	-0.0912
AAGTGTCT	-0.0964
ATTTACAG	-0.112
ACAGATTC	0.0872
GCACCGCA	-0.0228
CACGCAGA	-0.0681
TATGGGAA	0.0296
AAAAACGA	-0.0303
ACTACAAC	-0.0248

Sequence	PBM E-score
TCTCCGCA	0.168
AGCATCCC	0.12
CACATGGG	-0.0679
AGACCGAT	0.0137
GTTGGGGA	-0.0633
AGTGGGTA	0.0928
CAGGTACC	-0.0708
AGTCTGCG	-0.259
GAAGCGTC	-0.17
GAACGGGC	-0.103
CCTCCTCG	-0.207
GCGAGACC	-0.0938
ACTTGTTC	0.0404
GCTGACCA	0.0667
GAAGAACC	0.143
AATGAATT	0.0733
AGCACGAG	0.0609
GGTATCAA	-0.0451
CGAGAACG	0.2
AGGGATCC	0.196
ATGTCGCG	0.18
CCTCCCGC	0.177
ACAGGACC	-0.0605
CATCCTGC	-0.207
GCGATTAC	-0.0135

Sequence	PBM E-score
GACCGCGA	0.131
CCACTCAC	0.0418
CCTTAATA	-0.0631
GATGCATA	-0.00963
ACTGGTGA	-0.31
CCCCCCCA	-0.265
CACTCTCC	0.101
CAAGATAG	-0.059
GGTACAGA	-0.0537
CGGAAAAG	0.415
AACCAGCA	-0.109
CTAGAGCC	-0.261
CCACAACC	0.0861
AAGAGAGT	-0.226
GCGTGAGA	0.00659
ATTTTTGC	0.0217
AACCTTTC	-0.0762
ATTGTCGG	0.193
ATACTGCG	0.0344
AGTCACAA	-0.132
CATGGTCC	0.0411
CCCGACAC	0.0405
CAAGTTGG	-0.0191
ATCCCATA	0.0193
AAGCGCGG	0.17

Sequence	PBM E-score
ATGAGGAA	-0.0143
CCAAGCGA	-0.126
CATGCGGC	0.0139
ATAGCAAA	-0.274
GTATGAGA	0.089
GCAAGCCC	-0.0061
ACGTTGTA	-0.0949
GGGACACC	0.0616
CAAGTGCC	-0.0721
CTCGGGAC	0.293
ACTGGGCG	-0.018
ACGGTGCA	-0.172
TACTGTGA	-0.0404
GCTTGAAC	0.16
CATCAGAG	-0.0589
CCGGCGGA	0.449
ACCGATAG	0.0273
CCGGACCG	0.378
TACAAAGA	-0.0536
AGCAATCC	0.0514
AGGTCCAA	-0.294
CAGGATAA	-0.02
AACGGATT	0.334
CAATATTC	0.0802
CCAGGAAC	-0.0712

Sequence	PBM E-score
ATGCGGGG	0.0406
CTCATTTA	0.047
AGACAGTC	-0.0923
AACTGAAG	-0.148
TCAAGGCA	-0.319
GCAATGGC	0.0501
CCTCGGAG	0.283
AGCCAGAA	-0.174
CGAATGCG	0.23
ACTGTCCC	0.00248
AAGAGGGC	-0.124
TAGTCGCA	0.0265
CTGATTTC	-0.0616
CAGGGCCA	-0.111
AACGCTAT	-0.102
ACGATCCT	-0.137
CTCAGCCA	-0.0645
TAATAAAA	-0.0293
GCCAAAAC	-0.19
CACACCCG	0.208
AGGTCAAC	-0.141
CCTGGCCA	-0.107
